# Source: PubChem BioAssay (Tox21)
# “And” between values parts separate entries of the source, which are not always exact repeats. Equal values may be shown once. This list was built around the results that the source calls inconclusive (neither active nor inactive); the mix of calls is not that of the screen. For part of these data: Potencies of inconclusive entries are doubtful fits and often do not repeat. Some structures have more than one record in an assay (separate samples or runs), and their calls can disagree. The source made the active and inactive calls. Unless noted, calls follow the shape of the dose curve; as a rule, active = well fitted curve in the direction sought with a large enough effect in the repeat runs; inconclusive = weak or mixed curves; inactive = no such curve, though single readings can be large; an effect the other way counts as inactive or inconclusive.
# Assays:
# [1] = qHTS assay to identify small molecule agonists or antagonists of the thyroid stimulating hormone receptor (TSHR) signaling pathway - wild type cell line counter screen (AID 1259384; calls by dose curve; also: potency is read from the fitted curve at half-maximal effect; as to cAMP activity change: % is scaled to controls: 0 for no effect and ±100 for the full control effect); settings: HEK293 wild type, cAMP HTRF counter-screen; cAMP activity change: at 92.4 µM (top of the series), stronger effect = higher value unless noted
# In short: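 Wild-type HEK293 cells were plated 18 h at 37 C/5% CO2, pin-dosed with compound plus Ro20-1724 medium, held 30 min at room temperature, then given cAMP-d2 and anti-cAMP-cryptate; fluorescence was read after 1 h. Fifteen concentrations, triplicate.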
# [2] = target: Thyrotropin receptor (Homo sapiens) (UniProt P16473); experiment: qHTS assay to identify small molecule antagonists of the thyroid stimulating hormone receptor (TSHR) signaling pathway (AID 1259385; calls by dose curve; also: potency is read from the fitted curve at half-maximal effect; nearly all actives have a fitted effect of over 20% in size); settings: TSHR-HEK293 cAMP HTRF, TSH-stimulated antagonist mode; activity change, negative = inhibition: at 92.4 µM (top of the series) unless noted
# In short: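 TSHR-HEK293 cells were plated and held 18 h at 37C/5% CO2, then given compound plus Ro20-1724 and stimulated with TSH at 1.5 ng/mL final. After 30 min at room temperature, cAMP was detected with cAMP-d2/anti-cAMP-cryptate (1 h) by fluorescence.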
# [3] = target: Progesterone receptor (Homo sapiens) (UniProt P06401); experiment: qHTS assay to identify small molecule antagonists of the progesterone receptor (PR) signaling pathway (AID 1346795; active = well fitted inhibition curve with a large enough effect in the signal ratio in the repeat runs, not every such curve was filed as active; inconclusive = weak or mixed curves; the % refers to the signal ratio; also: potency is read from the fitted curve at half-maximal effect); settings: PR-UAS-bla HEK293T, beta-lactamase FRET ratio, 16 h; activity change, negative = inhibition: at 92.4 µM (top of the series) unless noted
# In short: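 After 6 hr plating at 37C in 2% stripped-serum medium, PR-UAS-bla HEK293T cells got compounds, then 1 nM R5020. Sixteen hours later, LiveBLAzer substrate was applied for 2 hr at room temperature and fluorescence was recorded.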
# [4] = qHTS assay to identify small molecule antagonists of the progesterone receptor (PR) signaling pathway - cell viability counter screen (AID 1346798); also: potency is read from the fitted curve at half-maximal effect; nearly all actives have a fitted effect of over 50% in size
# In short: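 Viability was determined by ATP-based luminescence (CellTiter-Glo) in PR-UAS-bla HEK293T cells cultured in 2% charcoal-stripped serum and incubated 16 hr with compounds under R5020 stimulation.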
# [5] = qHTS assay to identify small molecule agonists of the progesterone receptor (PR) signaling pathway - cell viability counter screen (AID 1346799; calls by dose curve; also: nearly all actives have a fitted effect of over 45% in size; also: potency is read from the fitted curve at half-maximal effect)
# In short: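 Viability was scored by ATP luminescence (CellTiter-Glo, 30 min, room temperature) in the same wells used for the reporter readout, after 16 hr compound exposure of PR-UAS-bla HEK293T cells.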
# [6] = qHTS assay to identify small molecule agonists of the TGF-beta/Smad signaling pathway (AID 1346859; active = well fitted activation curve with a large enough effect in the signal ratio in the repeat runs, not every such curve was filed as active; inconclusive = weak or mixed curves; the % refers to the signal ratio; also: potency is read from the fitted curve at half-maximal effect; as to activation: % is scaled to controls: 0 for no effect and ±100 for the full control effect); settings: SBE-bla HEK293T, TGF-beta/Smad beta-lactamase reporter, 5 h; activation: at 76.8 µM (top of the series)
# In short: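 Dual-wavelength fluorescence (460/530 nm emission) quantified beta-lactamase expression under the Smad binding element in HEK 293T cells following 5 hr compound treatment at 37 C.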
# [7] = Human pregnane X receptor (PXR) small molecule agonists, qHTS cell viability counter screen (AID 1346977); also: potency is read from the fitted curve at half-maximal effect; nearly all actives have a fitted effect of over 50% in size
# In short: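 HepG2 cells stably carrying the PXR-Luc reporter are cultured with 5% charcoal-stripped FBS and treated with compounds for 24hr. CellTiter-Fluor is added at 23hr and fluorescence is read after 1hr.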
# [8] = Caspase-3/7 induction in CHO-K1 cells by small molecules, qHTS cell viability counter screen (AID 1346979); also: potency is read from the fitted curve at half-maximal effect; nearly all actives have a fitted effect of over 35% in size
# In short: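 Seeding: 1,500 CHO-K1 cells/well. Rest: 5hr, 37C. Treatment: compounds in DMSO, 16hr. Read: CellTiter-Fluor, 1hr, fluorescence.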
# [9] = qHTS assay to identify small molecule agonists of the estrogen receptor alpha (ER-alpha) signaling pathway in the presence of an antagonist - cell viability counter screen (AID 1259386);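 also: potency is read from the fitted curve at half-maximal effect; cells exposed to compounds for 22 h at 37 °C before the viability read; nearly all actives have a fitted effect of over 30% in size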
# In short: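 Fluorescent CellTiter-Fluor viability signal from VM7Luc4E2 cells, with the reagent added during the final hour of a 22hr compound exposure at 37C in the presence of 10.0nM ICI-182,780.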
# [10] = target: Progesterone receptor (Homo sapiens) (UniProt P06401); experiment: qHTS assay to identify small molecule agonists of the progesterone receptor (PR) signaling pathway (AID 1346784; calls by dose curve; also: potency is read from the fitted curve at half-maximal effect; nearly all actives have a fitted effect of over 30% in size); settings: PR-UAS-bla HEK293T, beta-lactamase FRET ratio, 16 h; activation: at 92.4 µM (top of the series) unless noted
# In short: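 The screen uses PR-UAS-bla HEK 293T cells in charcoal-stripped serum (2%). Compounds are applied for 16 hr at 37C after a 6 hr pre-incubation, and reporter activity is detected with a FRET beta-lactamase substrate after 2 hr at room temperature.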
# [11] = qHTS assay to identify small molecule antagonists of the TGF-beta/Smad signaling pathway - cell viability counter screen (AID 1346824); also: potency is read from the fitted curve at half-maximal effect; nearly all actives have a fitted effect of over 50% in size
# In short: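 SBE-bla HEK 293T cells were plated overnight at 37 C, then given compounds in DMSO plus TGF-beta1 (added as 0.25 ng/mL solution) for 5 hr. After the bla read, CellTiter-Glo was added to the same wells and luminescence read after 30 min at room temperature.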
# [12] = target: Thyrotropin-releasing hormone receptor (Homo sapiens) (UniProt P34981); experiment: qHTS assay to identify small molecule antagonists of the thyrotropin-releasing hormone receptor (TRHR) signaling pathway (AID 1346877; active = well fitted inhibition curve with a large enough effect in the repeat runs, not every such curve was filed as active; inconclusive = weak or mixed curves; also: potency is read from the fitted curve at half-maximal effect)
# In short: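 In this cell-based calcium flux format, HEK293 cells expressing TRHR received test compound for 5 min before the agonist TRH (1 nM final). Dye loading lasted 2 h at 37 °C.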
# [13] = target: Thyrotropin-releasing hormone receptor (Homo sapiens) (UniProt P34981); experiment: qHTS assay to identify small molecule agonists of the thyrotropin-releasing hormone receptor (TRHR) signaling pathway (AID 1346891; calls by dose curve; also: potency is read from the fitted curve at half-maximal effect)
# In short: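 Kinetic fluorescence (3 min, 1 s intervals) reported intracellular calcium after compound transfer onto TRHR-Hek293 cells pre-loaded with dye for 2 h at 37 °C.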
# [14] = qHTS assay to identify small molecule antagonists of the TGF-beta/Smad signaling pathway (AID 1346924; active = well fitted inhibition curve with a large enough effect in the signal ratio in the repeat runs, not every such curve was filed as active; inconclusive = weak or mixed curves; the % refers to the signal ratio; also: potency is read from the fitted curve at half-maximal effect); settings: SBE-bla HEK293T, TGF-beta/Smad reporter, beta-lactamase ratio; activity, negative = inhibition: at 76.8 µM (top of the series) unless noted
# In short: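 SBE-bla HEK 293T cells were plated overnight, then received compound in DMSO plus TGF-beta1 (added as a 0.25 ng/mL solution) and were incubated 5 h at 37 C. Beta-lactamase reporter activity was read after 2 h at room temperature with LiveBLAzer B/G FRET substrate (ex 405, em 460/530 nm).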
# [15] = target: Estrogen receptor (Homo sapiens) (UniProt P03372); experiment: qHTS assay to identify small molecule agonists of the estrogen receptor alpha (ER-alpha) signaling pathway in the presence of an antagonist (AID 1259383; calls by dose curve; also: potency is read from the fitted curve at half-maximal effect; nearly all actives have a fitted effect of over 15% in size)
# In short: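 In VM7Luc4E2 cells, 4,000 per well, compounds at 15 concentrations were co-incubated 22hr at 37C with 10.0nM final ICI-182,780. Luminescence from the stably transfected 4×ERE-luciferase reporter was recorded 30min after ONE-Glo addition.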
# [16] = qHTS assay to identify small molecule antagonists of the estrogen receptor beta (ER-beta) signaling pathway - cell viability counter screen (AID 1259382);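 also: HEK293T cells carrying ER-beta-UAS-bla reporter stimulated with estradiol; % is scaled to controls: 0 for no effect and ±100 for the full control effect; nearly all actives have a fitted effect of over 55% in size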
# In short: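 Tox21 10K library tested in qHTS format on ER-beta-bla HEK293T cells stimulated with 1nM E2; 16 hr treatment at 37C. Same-well CellTiter-Glo luminescence served as the cell viability measure.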
# [17] = qHTS assay to identify small molecule agonists of the TGF-beta/Smad signaling pathway - cell viability counter screen (AID 1346829); also: potency is read from the fitted curve at half-maximal effect; nearly all actives have a fitted effect of over 45% in size
# In short: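 SBE-bla HEK 293T cells plated overnight, compound exposure 5 hr at 37 C. Viability read in the same wells by CellTiter-Glo luminescence after 30 min at room temperature, following the beta-lactamase read.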
# [18] = Caspase-3/7 induction in CHO-K1 cells by small molecules, qHTS assay (AID 1346980); also: potency is read from the fitted curve at half-maximal effect; nearly all actives have a fitted effect of over 15% in size
# In short: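 Wild-type cells were seeded at 1,500 per well and settled 5 hr at 37 C, 5% CO2, then exposed to DMSO-dissolved compounds for 17 hr. Caspase-Glo 3/7 reagent was added, and luminescence was read after 30min at room temperature.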
# [19] = Caspase-3/7 induction in HepG2 cells by small molecules, qHTS assay (AID 1346978); also: potency is read from the fitted curve at half-maximal effect; nearly all actives have a fitted effect of over 15% in size
# In short: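 Wild-type HepG2 cells (2,000/well) were settled 5 h at 37 C, 5% CO2, then exposed to compounds in DMSO for 17 h. Caspase-3/7 activity was read by luminescence 30 min after adding Caspase-Glo 3/7 reagent at room temperature.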
# Tags tell the direction and shape of the fitted curve or compound fluorescence and quenching.
# Chain of UniProt P16473 (P16473 whole entry, looked up): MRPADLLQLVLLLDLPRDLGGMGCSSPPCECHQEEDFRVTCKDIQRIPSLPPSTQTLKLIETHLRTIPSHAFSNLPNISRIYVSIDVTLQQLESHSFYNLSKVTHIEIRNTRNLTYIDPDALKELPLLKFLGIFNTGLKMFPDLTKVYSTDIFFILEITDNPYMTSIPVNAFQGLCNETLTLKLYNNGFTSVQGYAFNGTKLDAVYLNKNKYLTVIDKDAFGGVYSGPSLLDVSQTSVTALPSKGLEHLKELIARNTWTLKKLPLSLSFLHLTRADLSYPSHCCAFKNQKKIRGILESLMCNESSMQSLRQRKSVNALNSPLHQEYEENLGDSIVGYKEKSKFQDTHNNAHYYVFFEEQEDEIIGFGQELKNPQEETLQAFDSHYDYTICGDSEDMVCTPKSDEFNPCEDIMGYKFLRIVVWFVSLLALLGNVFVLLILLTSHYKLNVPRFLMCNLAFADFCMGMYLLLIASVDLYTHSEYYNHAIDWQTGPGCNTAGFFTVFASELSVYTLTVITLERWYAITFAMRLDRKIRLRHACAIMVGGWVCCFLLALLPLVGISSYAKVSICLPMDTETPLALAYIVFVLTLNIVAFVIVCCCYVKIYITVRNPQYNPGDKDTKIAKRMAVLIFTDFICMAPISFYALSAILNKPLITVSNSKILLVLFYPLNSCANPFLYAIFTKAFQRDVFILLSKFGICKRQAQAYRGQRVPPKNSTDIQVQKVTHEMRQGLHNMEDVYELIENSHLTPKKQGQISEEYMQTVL
# Chain of UniProt P06401 (P06401 whole entry, looked up): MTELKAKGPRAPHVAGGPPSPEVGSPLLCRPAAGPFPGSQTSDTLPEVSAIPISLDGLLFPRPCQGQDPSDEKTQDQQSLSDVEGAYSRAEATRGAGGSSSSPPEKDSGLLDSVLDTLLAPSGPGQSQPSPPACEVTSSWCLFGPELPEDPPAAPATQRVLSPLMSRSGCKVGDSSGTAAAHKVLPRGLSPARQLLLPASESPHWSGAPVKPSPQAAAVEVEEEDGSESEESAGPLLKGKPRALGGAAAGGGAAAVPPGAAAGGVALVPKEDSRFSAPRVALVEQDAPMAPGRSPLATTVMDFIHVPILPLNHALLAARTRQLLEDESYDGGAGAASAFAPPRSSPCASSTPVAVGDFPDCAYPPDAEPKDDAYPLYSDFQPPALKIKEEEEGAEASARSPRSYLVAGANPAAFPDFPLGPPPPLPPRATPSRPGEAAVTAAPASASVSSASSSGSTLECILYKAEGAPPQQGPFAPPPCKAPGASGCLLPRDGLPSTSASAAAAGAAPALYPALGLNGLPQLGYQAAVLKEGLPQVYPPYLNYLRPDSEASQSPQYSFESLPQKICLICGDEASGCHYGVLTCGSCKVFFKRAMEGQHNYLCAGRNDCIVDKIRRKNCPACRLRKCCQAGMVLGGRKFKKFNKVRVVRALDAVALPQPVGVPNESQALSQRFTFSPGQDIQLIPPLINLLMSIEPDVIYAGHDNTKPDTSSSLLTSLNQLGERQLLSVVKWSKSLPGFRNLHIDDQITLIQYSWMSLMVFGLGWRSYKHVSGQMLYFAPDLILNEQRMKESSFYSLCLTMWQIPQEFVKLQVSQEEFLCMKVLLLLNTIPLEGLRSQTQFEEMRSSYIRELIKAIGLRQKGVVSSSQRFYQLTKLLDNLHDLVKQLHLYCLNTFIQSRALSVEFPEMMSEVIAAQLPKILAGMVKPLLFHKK
# Chain of UniProt P34981 (P34981 whole entry, looked up): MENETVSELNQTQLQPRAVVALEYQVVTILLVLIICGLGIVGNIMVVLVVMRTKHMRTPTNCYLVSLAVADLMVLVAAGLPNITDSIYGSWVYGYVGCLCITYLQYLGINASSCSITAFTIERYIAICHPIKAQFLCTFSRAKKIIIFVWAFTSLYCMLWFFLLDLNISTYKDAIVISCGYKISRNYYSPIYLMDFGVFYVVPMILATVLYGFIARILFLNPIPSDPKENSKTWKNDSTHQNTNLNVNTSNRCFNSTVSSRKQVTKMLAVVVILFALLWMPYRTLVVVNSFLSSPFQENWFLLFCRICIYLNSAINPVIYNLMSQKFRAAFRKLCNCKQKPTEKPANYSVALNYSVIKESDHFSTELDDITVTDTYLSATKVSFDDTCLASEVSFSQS
# Chain of UniProt P03372 (P03372 whole entry, looked up): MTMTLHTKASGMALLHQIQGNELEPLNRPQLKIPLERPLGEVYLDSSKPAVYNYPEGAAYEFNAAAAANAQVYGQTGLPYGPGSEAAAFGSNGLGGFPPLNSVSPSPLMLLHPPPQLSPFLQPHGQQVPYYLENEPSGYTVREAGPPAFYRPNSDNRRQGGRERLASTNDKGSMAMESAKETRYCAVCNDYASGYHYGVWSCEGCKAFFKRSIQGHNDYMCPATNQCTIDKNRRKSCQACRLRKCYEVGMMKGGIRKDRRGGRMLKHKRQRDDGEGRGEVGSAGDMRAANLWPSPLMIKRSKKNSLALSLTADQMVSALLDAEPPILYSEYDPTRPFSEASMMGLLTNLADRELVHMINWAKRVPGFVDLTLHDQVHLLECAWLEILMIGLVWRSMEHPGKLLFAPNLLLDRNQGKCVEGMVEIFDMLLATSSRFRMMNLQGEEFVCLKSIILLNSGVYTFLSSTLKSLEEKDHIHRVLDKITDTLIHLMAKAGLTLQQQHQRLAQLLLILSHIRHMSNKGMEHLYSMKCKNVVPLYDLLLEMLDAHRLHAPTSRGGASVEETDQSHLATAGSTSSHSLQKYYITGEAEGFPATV
compound,measurement,setting,value
CN(C)CCc1c[nH]c2ccc(O)cc12,Potency,[1],inconclusive: 56.4 µM
same,Potency,[2],inconclusive: 67 µM
same,Potency,[3],active: 53.2 µM
same,Potency,[4],active: 42.3 µM
same,Potency,[5],inactive
same,Potency,[6],inactive
same,Potency,[7],"inconclusive: 67 µM [cytotoxic, single point]"
same,Potency,[8],"inconclusive: 75.2 µM [cytotoxic, single point]"
C[C@@H]1CC[C@@]2(OC1)O[C@H]1[C@@H](O)[C@H]3[C@@H]4CC[C@H]5C[C@@H](O[C@@H]6O[C@H](CO)[C@H](O[C@@H]7O[C@H](CO)[C@@H](O)[C@H](O[C@@H]8OC[C@@H](O)[C@H](O)[C@H]8O)[C@H]7O[C@@H]7O[C@H](CO)[C@@H](O)[C@H](O[C@@H]8O[C@H](CO)[C@@H](O)[C@H](O)[C@H]8O)[C@H]7O)[C@H](O)[C@H]6O)[C@H](O)C[C@]5(C)[C@H]4CC[C@]3(C)[C@H]1[C@@H]2C,Potency,[2],active: 4.59 µM
same,Potency,[9],active: 72.8 µM
same,Potency,[10],"inconclusive: 51.5 µM [falling, partial curve, poor fit]"
same,Potency,[3],"inconclusive: 40.9 µM [falling, partial curve]"
same,Potency,[5],active: 14.5 µM
same,Potency,[11],active: 23.2 µM
same,Potency,[6],"inconclusive: 29.2 µM [falling, partial curve]"
same,Potency,[12],active: 0.804 µM
same,Potency,[13],active: 0.655 µM
same,Potency,[14],inconclusive: 52 µM [cytotoxic]
same,Potency,[7],active: 10.3 µM
same,Potency,[8],active: 4.59 µM
c1cc[c]([Hg][c]2ccccc2)cc1,Potency,[15],"inconclusive: 17.2 µM [activator, partial curve]"
same,Potency,[3],inconclusive: 54.5 µM
same,Potency,[5],"inconclusive: 30.6 µM [rising, partial curve]"
same,Potency,[11],"inconclusive: 0.49 µM [cytotoxic, single point]"
same,Potency,[8],active: 68.6 µM
C=Cc1cccc(CCl)c1,Potency,[16],inactive
same,Potency,[7],"inconclusive: 125 µM [rising, partial curve, poor fit]"
COC(=O)c1cc(Oc2ccc(Cl)cc2Cl)ccc1[N+](=O)[O-],Potency,[2],"inconclusive: 48.6 µM [falling, partial curve, poor fit]"
same,Potency,[9],"inconclusive: 6.11 µM [cytotoxic, partial curve, poor fit]"
same,Potency,[3],active: 15.4 µM
same,Potency,[5],"inconclusive: 19.3 µM [rising, full curve]"
same,"activity, negative = inhibition",[14],inconclusive: -10.1%
CC(C)(C)CC(C)(C)c1ccc(O)cc1,cAMP activity change,[1],inconclusive: -37.1%
same,Potency,[9],inconclusive: 61.1 µM [cytotoxic]
same,Potency,[10],inconclusive: 57.7 µM [cytotoxic]
same,Potency,[3],"inconclusive: 23.7 µM [falling, partial curve]"
same,Potency,[4],"active: 54.5 µM and inconclusive: 33.5 µM [cytotoxic, single point]"
same,Potency,[5],"active: 48.6 µM and inconclusive: 29.8 µM [cytotoxic, single point]"
same,Potency,[17],active: 43.6 µM
same,Potency,[6],"inconclusive: 38.9 µM [falling, partial curve, poor fit]"
same,Potency,[12],inconclusive: 31.9 µM [inhibitor]
same,Potency,[13],inconclusive: 38.9 µM [activator]
same,Potency,[7],"inconclusive: 33.5 µM [cytotoxic, single point]"
same,Potency,[8],"active: 50 µM and inconclusive: 33.5 µM [cytotoxic, single point]"
same,Potency,[18],"active: 51.4 µM and inconclusive: 26.6 µM [activator, single point]"
[F][Sn]([c]1ccccc1)([c]1ccccc1)[c]1ccccc1,Potency,[2],active: 15.4 µM
same,Potency,[10],"inconclusive: 21.7 µM [cytotoxic, full curve]"
same,Potency,[3],"inconclusive: 0.273 µM [rising, partial curve]"
same,Potency,[4],active: 1.37 µM
same,Potency,[5],active: 1.54 µM
same,Potency,[11],active: 1.38 µM
same,Potency,[17],active: 1.23 µM
same,Potency,[6],"inconclusive: 0.549 µM [rising, partial curve]"
same,Potency,[12],active: 3.38 µM
same,Potency,[14],"inconclusive: 0.776 µM [rising, partial curve]"
same,Potency,[19],active: 0.193 µM
same,Potency,[18],active: 61.1 nM
